Assay results taken from the RNAGym collection of RNA variant scans (doi:10.1073/pnas.2313332121).
Variants at the background level are over-represented here.

B1: TPR 5TU (parent)
chain: GGAUCUUCUCGAUCUAACAAAAAAGACAAAUCUGCCACAAAGCUUGAGAGCAUCUUCGGAUGCAGAGGCGGCAGCCUUCGGUGGCGCGAUAGCGCCAACGUUCUCAACUAUGACACGCAAAACGCGUGCUCCGUUGAAUGGAGUUUAUCAUG

Variants of: B1
Assay: polymerase ribozyme fitness, log enrichment relative to wild type (log ratio); higher = more active; in vitro selection for triplet polymerase activity
Outline: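 After PCR construction and transcription, each subunit's mutant library from a heterodimeric triplet polymerase ribozyme was annealed with a biotinylated primer, the partner subunit and triplets. Incubation was frozen, at −7 °C, and extended constructs were gel-excised, bound to streptavidin beads and amplified by RT-PCR, in one selection round done in triplicate. Fitness is the logarithm of a genotype's enrichment divided by that of the wild type, from inverse-variance-weighted replicate averages of Illumina-sequenced inputs and outputs. The base of the logarithm is 2, and genotypes needed ≥10 input reads and ≥1 read per output.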

Variant | polymerase ribozyme fitness (log ratio)
A40U A97U C108U | ≤ -4.2
A40C G50C C95U A150U | ≤ -4.2
A41C C87U A120C | -1.53
A40G A73G G86A | -4.16
A41C G83U G124U | -0.893
A41C A49C G81A A97C C103G G124U U134C | ≤ -4.2
A41C C93U C123U | -1.59
A40G A52U C54U U56A U77G G83U C87A G143A | ≤ -4.2
A40C G86C G88U | ≤ -4.2
A41C A47C C96U C103U A115G | -3.11
A40C G48C U56A G62A G80A C105U | ≤ -4.2
A41C C43U A89U G143C A147C | ≤ -4.2
A40U C57A G58C C79G | -3.81
A40C G50U U61C C79G C93A | ≤ -4.2
A41C A52C U53A C85U C93U U127G | ≤ -4.2
A40G A52G A91U U102C A138U G143U | ≤ -4.2
A40U U78A C93U G140A | ≤ -4.2
A41C G59U G88A A120G | ≤ -4.2
A40U G88A | -3.65
A40U G94U G136C | -4.02
A40G | -1.51

Variant | polymerase ribozyme fitness (log ratio)
A40U | 0.097
A40C G58A C72U U77G | ≤ -4.2
A40G A49C U146C | ≤ -4.2
A41C C95G C103U U135G | ≤ -4.2
A41C C79G C93G | ≤ -4.2
A41C G50U C95A A120C U134A A142C G143A | ≤ -4.2
A40U G83C A91U | ≤ -4.2
A40G U44C C54U C125G | ≤ -4.2
A40U C54A G65A C79G | ≤ -4.2
A40C C96U U144G U151G | -3.73
A40G A47G A73G C79A G83U C87U U111C | ≤ -4.2
A40U G152U | -3.71
A41C A47C U78A C125U | ≤ -4.2
A40G C85A U104G C116U G117U | ≤ -4.2
A40U G140U | -3.81
A40G U45A A47C C99U A115C G124C | ≤ -4.2
A40U G50C G71U C75A | ≤ -4.2
A41C A52G G86U | -2.67
A41C A47G A107G U109G C129A A137U U145G G152A | ≤ -4.2
A40U C63A C72A C76A C103G | ≤ -4.2
A40U C95U C129A U134C | -3.65

Variant | polymerase ribozyme fitness (log ratio)
A41C C76U G84U | -2.96
A40G A115U G140U | ≤ -4.2
A40C U61A G65A G70U C76A A110G G126A | ≤ -4.2
A41C G46A C57U C95U A115G | -3.25
A41C C43U G83A A106C A115G C118A G140A | ≤ -4.2
A40C G59A G71U G94C U127C | ≤ -4.2
A40C G86A G141C A147C | ≤ -4.2
A40C G84A G94A C131U U139A | -4.09
A41C A142G U144C G152A | -3.09
A41C G70C G74U C93U | ≤ -4.2
A41C C72U C95U C103U G143C C149G | ≤ -4.2
A40U G83A C105U A107U A119U | ≤ -4.2
A41C C131A U139A | ≤ -4.2
A41C C54U U61G G68C | ≤ -4.2
A41C C125G | -0.815
A40U U53A G88C A89C U127A | ≤ -4.2
A41C G48A A49C U55A G136U A142G | ≤ -4.2
A41C A73G U145C | -1.73
A40U G71A C93G A150C | ≤ -4.2
A40U G94A U104C A110G C118U G140A | ≤ -4.2
A40C G84A C123A C132U U135G G141C U146A | ≤ -4.2

Variant | polymerase ribozyme fitness (log ratio)
A40U C43U G84A U127A | ≤ -4.2
A41C G62C C72A | ≤ -4.2
A41C C57A C96U U134C | -0.224
A40U G71U C85G | ≤ -4.2
A40U G58U C95A A107C U146C | ≤ -4.2
A41C G74A C87A C108G | ≤ -4.2
A40G G86A C95U C103G C108U C125G | ≤ -4.2
A40C G92C | -1.84
A40U G94U C118U A121C C125A G143C | ≤ -4.2
A40U C51U G83C | -0.981
A40U C75U U148A | ≤ -4.2
A40G A41C U55A G141C A142C | ≤ -4.2
A40C U55G G59C C75A U82G C96G U111G U148A A150C | ≤ -4.2
A41C A91G C118G | -3.64
A40G A73G C87G A113U | ≤ -4.2
A40G G74C C93U | ≤ -4.2
A40U C114U G141C G152U | -3.44
A40U U55A C85A C116A | -0.563
A40U G50C A52G C85A U90C A97U | ≤ -4.2
A40C G128U G143U | ≤ -4.2
A41C G48C C76U G88U | ≤ -4.2
